Further values from the same series stand in other lists.
How the values were obtained:
Design in all cases: dose 20 mg/kg, dosed compound name [14C]Sunitinib
Conditions in all cases: in vivo, po
[1] = Drug concentration in female Lister Hooded pigmented rat uterus assessed as radioactivity per gram of tissue at 20 mg/kg administered as single dose via gastric gavage measured after 24 hrs by autoradiographic analysis; format: ADME, organism-based
[2] = Drug concentration in male Lister Hooded pigmented rat uveal tract assessed as radioactivity per gram of tissue at 20 mg/kg administered as single dose via gastric gavage measured after 168 hrs by autoradiographic analysis; format: ADME, organism-based
[3] = Drug concentration in male Lister Hooded pigmented rat bone marrow assessed as radioactivity per gram of tissue at 20 mg/kg administered as single dose via gastric gavage measured after 24 hrs by autoradiographic analysis; format: ADME, organism-based
[4] = Drug concentration in male Lister Hooded pigmented rat bladder assessed as radioactivity per gram of tissue at 20 mg/kg administered as single dose via gastric gavage measured after 24 hrs by autoradiographic analysis; format: ADME, organism-based, Urinary bladder
[5] = Drug concentration in male Lister Hooded pigmented rat eye assessed as radioactivity per gram of tissue at 20 mg/kg administered as single dose via gastric gavage measured after 168 hrs by autoradiographic analysis; format: ADME, organism-based
[6] = Drug concentration in male Lister Hooded pigmented rat lymph node assessed as radioactivity per gram of tissue at 20 mg/kg administered as single dose via gastric gavage measured after 168 hrs by autoradiographic analysis; format: ADME, organism-based
[7] = Drug concentration in female albino rat uterus assessed as radioactivity per gram of tissue at 20 mg/kg administered as single dose via gastric gavage measured after 3 hrs by autoradiographic analysis; format: ADME, organism-based
[8] = Drug concentration in male albino rat bone marrow assessed as radioactivity per gram of tissue at 20 mg/kg administered as single dose via gastric gavage measured after 6 hrs by autoradiographic analysis; format: ADME, organism-based
[9] = Drug concentration in female albino rat lachrymal gland assessed as radioactivity per gram of tissue at 20 mg/kg administered as single dose via gastric gavage measured after 6 hrs by autoradiographic analysis; format: ADME, organism-based
[10] = Drug concentration in male albino rat salivary gland assessed as radioactivity per gram of tissue at 20 mg/kg administered as single dose via gastric gavage measured after 72 hrs by autoradiographic analysis; format: ADME, organism-based
[11] = Drug concentration in male albino rat pituitary gland assessed as radioactivity per gram of tissue at 20 mg/kg administered as single dose via gastric gavage measured after 24 hrs by autoradiographic analysis; format: ADME, organism-based
[12] = Drug concentration in male albino rat preputial gland assessed as radioactivity per gram of tissue at 20 mg/kg administered as single dose via gastric gavage measured after 3 hrs by autoradiographic analysis; format: ADME, organism-based
[13] = Drug concentration in female albino rat eye assessed as radioactivity per gram of tissue at 20 mg/kg administered as single dose via gastric gavage measured after 72 hrs by autoradiographic analysis; format: ADME, organism-based
[14] = Drug concentration in male albino rat lachrymal gland assessed as radioactivity per gram of tissue at 20 mg/kg administered as single dose via gastric gavage measured after 72 hrs by autoradiographic analysis; format: ADME, organism-based
[15] = Drug concentration in female albino rat thyroid gland assessed as radioactivity per gram of tissue at 20 mg/kg administered as single dose via gastric gavage measured after 24 hrs by autoradiographic analysis; format: ADME, organism-based
[16] = Drug concentration in female albino rat pituitary gland assessed as radioactivity per gram of tissue at 20 mg/kg administered as single dose via gastric gavage measured after 3 hrs by autoradiographic analysis; format: ADME, organism-based
[17] = Drug concentration in male Lister Hooded pigmented rat salivary gland assessed as radioactivity per gram of tissue at 20 mg/kg administered as single dose via gastric gavage measured after 168 hrs by autoradiographic analysis; format: ADME, organism-based
[18] = Drug concentration in female albino rat preputial gland assessed as radioactivity per gram of tissue at 20 mg/kg administered as single dose via gastric gavage measured after 3 hrs by autoradiographic analysis; format: ADME, organism-based
[19] = Drug concentration in male Lister Hooded pigmented rat thyroid gland assessed as radioactivity per gram of tissue at 20 mg/kg administered as single dose via gastric gavage measured after 24 hrs by autoradiographic analysis; format: ADME, organism-based
[20] = Drug concentration in female Lister Hooded pigmented rat uveal tract assessed as radioactivity per gram of tissue at 20 mg/kg administered as single dose via gastric gavage measured after 72 hrs by autoradiographic analysis; format: ADME, organism-based
[21] = Drug concentration in male Lister Hooded pigmented rat brown fat assessed as radioactivity per gram of tissue at 20 mg/kg administered as single dose via gastric gavage measured after 24 hrs by autoradiographic analysis; format: ADME, organism-based, Brown adipose tissue
[22] = Drug concentration in female Lister Hooded pigmented rat eye assessed as radioactivity per gram of tissue at 20 mg/kg administered as single dose via gastric gavage measured after 72 hrs by autoradiographic analysis; format: ADME, organism-based
[23] = Drug concentration in male albino rat brown fat assessed as radioactivity per gram of tissue at 20 mg/kg administered as single dose via gastric gavage measured after 6 hrs by autoradiographic analysis; format: ADME, organism-based, Brown adipose tissue
[24] = Drug concentration in male albino rat brown fat assessed as radioactivity per gram of tissue at 20 mg/kg administered as single dose via gastric gavage measured after 24 hrs by autoradiographic analysis; format: ADME, organism-based, Brown adipose tissue
[25] = Drug concentration in male Lister Hooded pigmented rat testis assessed as radioactivity per gram of tissue at 20 mg/kg administered as single dose via gastric gavage measured after 336 hrs by autoradiographic analysis; format: ADME, organism-based
[26] = Drug concentration in male Lister Hooded pigmented rat thyroid gland assessed as radioactivity per gram of tissue at 20 mg/kg administered as single dose via gastric gavage measured after 168 hrs by autoradiographic analysis; format: ADME, organism-based
[27] = Drug concentration in male Lister Hooded pigmented rat testis assessed as radioactivity per gram of tissue at 20 mg/kg administered as single dose via gastric gavage measured after 168 hrs by autoradiographic analysis; format: ADME, organism-based
[28] = Drug concentration in male albino rat lymph node assessed as radioactivity per gram of tissue at 20 mg/kg administered as single dose via gastric gavage measured after 24 hrs by autoradiographic analysis; format: ADME, organism-based
[29] = Drug concentration in male Lister Hooded pigmented rat uveal tract assessed as radioactivity per gram of tissue at 20 mg/kg administered as single dose via gastric gavage measured after 336 hrs by autoradiographic analysis; format: ADME, organism-based
[30] = Drug concentration in female albino rat uveal tract assessed as radioactivity per gram of tissue at 20 mg/kg administered as single dose via gastric gavage measured after 72 hrs by autoradiographic analysis; format: ADME, organism-based
[31] = Drug concentration in male albino rat salivary gland assessed as radioactivity per gram of tissue at 20 mg/kg administered as single dose via gastric gavage measured after 6 hrs by autoradiographic analysis; format: ADME, organism-based
[32] = Drug concentration in female albino rat pituitary gland assessed as radioactivity per gram of tissue at 20 mg/kg administered as single dose via gastric gavage measured after 24 hrs by autoradiographic analysis; format: ADME, organism-based
[33] = Drug concentration in female albino rat lachrymal gland assessed as radioactivity per gram of tissue at 20 mg/kg administered as single dose via gastric gavage measured after 3 hrs by autoradiographic analysis; format: ADME, organism-based
[34] = Drug concentration in male albino rat pituitary gland assessed as radioactivity per gram of tissue at 20 mg/kg administered as single dose via gastric gavage measured after 3 hrs by autoradiographic analysis; format: ADME, organism-based
[35] = Drug concentration in male Lister Hooded pigmented rat preputial gland assessed as radioactivity per gram of tissue at 20 mg/kg administered as single dose via gastric gavage measured after 24 hrs by autoradiographic analysis; format: ADME, organism-based
[36] = Drug concentration in female albino rat brown fat assessed as radioactivity per gram of tissue at 20 mg/kg administered as single dose via gastric gavage measured after 6 hrs by autoradiographic analysis; format: ADME, organism-based, Brown adipose tissue

Radiolabel recovery [1]: 0.44 ugequiv | Radiolabel recovery [2]: 111.78 ugequiv | Radiolabel recovery [3]: 0.55 ugequiv | Radiolabel recovery [4]: 0.48 ugequiv | Radiolabel recovery [5]: 28.52 ugequiv | Radiolabel recovery [6]: 0.06 ugequiv | Radiolabel recovery [7]: 6.84 ugequiv | Radiolabel recovery [8]: 6.6 ugequiv | Radiolabel recovery [9]: 19.88 ugequiv | Radiolabel recovery [10]: 0.14 ugequiv | Radiolabel recovery [11]: 7.9 ugequiv | Radiolabel recovery [12]: 12.6 ugequiv | Radiolabel recovery [13]: 0.11 ugequiv | Radiolabel recovery [14]: 0.41 ugequiv | Radiolabel recovery [15]: 2.65 ugequiv | Radiolabel recovery [16]: 21.58 ugequiv | Radiolabel recovery [17]: 0.06 ugequiv | Radiolabel recovery [18]: 17.74 ugequiv | Radiolabel recovery [19]: 0.72 ugequiv | Radiolabel recovery [20]: 168.12 ugequiv | Radiolabel recovery [21]: 0.85 ugequiv | Radiolabel recovery [22]: 40 ugequiv | Radiolabel recovery [23]: 7.57 ugequiv | Radiolabel recovery [24]: 0.46 ugequiv | Radiolabel recovery [25]: 0.17 ugequiv | Radiolabel recovery [26]: 0.06 ugequiv | Radiolabel recovery [27]: 0.91 ugequiv | Radiolabel recovery [28]: 0.9 ugequiv | Radiolabel recovery [29]: 100.17 ugequiv | Radiolabel recovery [30]: 0.45 ugequiv | Radiolabel recovery [31]: 12.14 ugequiv | Radiolabel recovery [32]: 6.49 ugequiv | Radiolabel recovery [33]: 24.12 ugequiv | Radiolabel recovery [34]: 24.34 ugequiv | Radiolabel recovery [35]: 7.53 ugequiv | Radiolabel recovery [36]: 9.42 ugequiv
SMILES: CCN(CC)CCNC(=O)c1c(C)[nH]c(/[14CH]=C2\C(=O)Nc3ccc(F)cc32)c1C.O=C(O)C[C@H](O)C(=O)O

From ChEMBL document CHEMBL3525900, “Pharmacokinetics, distribution, and metabolism of [14C]sunitinib in rats, monkeys, and humans” (Drug Metab Dispos, 2012)
